Data from the supplement of paper PMC12645437, “Orthogonal IMiD-Degron Pairs Induce Selective Protein Degradation in Cells” (ACS Chemical Biology, 2025).
The list shows a part of the results.

Molecular target: no compound (DMSO)
Experiment: log2 fold change of degron read counts, EGFP-low vs EGFP+ sorted cells; higher = lower degron-EGFP level without compound (poor expression or instability)
Settings: compound: DMSO control; 18 h
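Also: jurkat cells carrying a lentiviral library of mutant zinc finger degrons fused to EGFP plus mCherry, mCherry+ cells FACS sorted, degron abundance counted by next-generation sequencing.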

| Sequence | log2 fold change of degron read counts |
| --- | --- |
| FFCDVCGAKFTQKGNLLRHIKL | -1.42 |
| FKCEICGRMFTQKGNLLRHIKL | -1.73 |
| FACDVCGAYFTQKGNLLRHIKL | -1 |
| FNCPICGHRFTQKGNLLRHIKL | -0.537 |
| FRCEVCGAIFTQKGNLLRHIKL | -0.202 |
| FHCPICGADFTQKGNLLRHIKL | -0.403 |
| LFCNQCGFRCTQKGNLLRHIKL | 1.87 |
| FTCPICGAFFTQKGNLLRHIKL | 1.24 |
| FMCNQCGHVFTQKGNLLRHIKL | -0.5 |
| FKCNQCGRSFTQKGNLLRHIKL | -1.11 |
| FRCNQCGRLFTQKGNLLRHIKL | 0.767 |
| LLCNQCGFPCTQKGNLLRHIKL | 0.714 |
| FVCEICGAYFTQKGNLLRHIKL | -1.07 |
| FCCPICGRVFTQKGNLLRHIKL | 0.392 |
| FSCNQCGRYFTQKGNLLRHIKL | 0.904 |
| FSCEICGHCFTQKGNLLRHIKL | -2.46 |

| Sequence | log2 fold change of degron read counts |
| --- | --- |
| FHCNQCGHWFTQKGNLLRHIKL | 1.14 |
| FVCNVCGAWFTQKGNLLRHIKL | -0.015 |
| FCCDVCGAIFTQKGNLLRHIKL | -0.476 |
| FKCPICGRGFTQKGNLLRHIKL | -0.853 |
| FVCDQCGAEFTQKGNLLRHIKL | -1.61 |
| FKCNQCGRPFTQKGNLLRHIKL | 0.118 |
| FICEQCGAIFTQKGNLLRHIKL | -0.992 |
| FRCNQCGRIFTQKGNLLRHIKL | 0.355 |
| FNCEVCGAQFTQKGNLLRHIKL | -2.05 |
| LMCNQCGFGCTQKGNLLRHIKL | 1.09 |
| FYCPVCGAAFTQKGNLLRHIKL | -0.502 |
| FNCPICGAIFTQKGNLLRHIKL | 0.0255 |
| LFCEICGFCCTQKGNLLRHIKL | 0.856 |
| FQCDICGACFTQKGNLLRHIKL | -0.711 |
| FFCPVCGANFTQKGNLLRHIKL | 0.149 |
| FSCEICGRHFTQKGNLLRHIKL | -1.29 |
